Laboratory results from the antibiotic and cytotoxicity screens of Wong et al. (2023).
Some of the results follow.

Tests used:
[1] = system: HSkMC (human skeletal muscle cells); assay: cytotoxicity call (relative viability < 0.9); settings: 10 µM
[2] = system: HepG2; assay: cytotoxicity call (relative viability < 0.9); settings: 10 µM
[3] = system: S. aureus RN4220; assay: growth inhibition call (relative growth <= 0.2); settings: 50 µM

SMILES	cytotoxicity call [1]	cytotoxicity call [2]	growth inhibition call [3]
O=C(C[C@@H]1CC[C@H]2[C@@H](COC[C@@H](O)CN2S(=O)(=O)c2ccccc2)O1)NCCN1CCCC1	inactive	inactive	inactive
CC(C)C#Cc1cnc2c(c1)C(=O)N([C@H](C)CO)C[C@H](C)[C@@H](CN(C)C(=O)c1ccc3c(c1)OCO3)O2	inactive	inactive	inactive
C[C@@H]1CCCCO[C@@H](CN(C)S(=O)(=O)c2cn(C)cn2)[C@@H](C)CN([C@@H](C)CO)C(=O)c2cc(NC(=O)Nc3ccc(C(F)(F)F)cc3)ccc2O1	inactive	inactive	inactive
O=C1C(O)=C(C2CCC(c3ccc(Cl)cc3)CC2)C(=O)c2ccccc21 (stereo not drawn)	inactive	active	inactive
C[C@@H]1CN([C@H](C)CO)S(=O)(=O)c2ccc(C#CC3CC3)cc2O[C@H]1CN(C)Cc1ccccc1F	inactive	inactive	inactive
C[C@H]1CN([C@@H](C)CO)C(=O)c2cc(NC(=O)Nc3ccccc3)ccc2O[C@@H]1CN(C)Cc1ccc(C(F)(F)F)cc1	inactive	active	inactive
C[C@@H]1CN([C@H](C)CO)S(=O)(=O)c2ccc(-c3ccc(C(=O)N(C)C)cc3)cc2O[C@H]1CN(C)C(=O)C1CCC1	inactive	inactive	inactive
O=C(O)CCC(=O)C(=O)O	inactive	inactive	inactive
CNC(=O)Cn1c(=O)c2c(OC)ccnc2n(C)c1=O	inactive	inactive	inactive
O=C(C[C@H]1C[C@H]2c3cc(NS(=O)(=O)c4ccc(F)cc4)ccc3O[C@H]2[C@H](CO)O1)NCc1ccccc1F	inactive	inactive	inactive
C[C@H]1CN([C@@H](C)CO)C(=O)Cc2cc(NS(=O)(=O)c3ccc(F)cc3)ccc2O[C@H]1CN(C)S(=O)(=O)c1cccs1	inactive	inactive	inactive
C[C@@H]1CN([C@@H](C)CO)C(=O)Cc2cc(NC(=O)C3CCCCC3)ccc2O[C@H]1CN(C)Cc1ccc(Oc2ccccc2)cc1	inactive	inactive	inactive
C[C@H]1CCCCO[C@H](CN(C)S(=O)(=O)c2ccccc2)[C@@H](C)CN([C@@H](C)CO)C(=O)c2cc(NC(=O)Nc3ccc4c(c3)OCO4)ccc2O1	inactive	active	inactive
Cc1cc(C(=O)NCc2cccn2C)nn1C	inactive	inactive	inactive
C[C@@H]1CCCCO[C@@H](CN(C)C(=O)Nc2ccc(C(F)(F)F)cc2)[C@@H](C)CN([C@H](C)CO)C(=O)c2cc(NC(=O)Nc3ccc4c(c3)OCO4)ccc2O1	inactive	inactive	inactive
CN(C)c1ccc2c(=O)[nH][nH]c(=O)c2c1	inactive	inactive	inactive
C[C@@H]1CN([C@H](C)CO)C(=O)c2ccccc2-c2ccccc2CO[C@@H]1CN(C)C(=O)Nc1cccc(F)c1	inactive	inactive	inactive
NC(=O)NCC#Cc1ccc2c(c1)[C@]1(C(=O)N2)[C@H](C(N)=O)[C@H]2C(=O)O[C@H](c3ccccc3)[C@H](c3ccccc3)N2[C@@H]1c1ccccc1OCCO	inactive	inactive	inactive
Cc1cccc(N2CCC(N)CC2)c1	inactive	inactive	inactive

SMILES	cytotoxicity call [1]	cytotoxicity call [2]	growth inhibition call [3]
COc1cccc(-c2ccc3c(c2)O[C@H](CN(C)C(=O)C2CC2)[C@H](C)CN([C@H](C)CO)S3(=O)=O)c1	inactive	inactive	inactive
C[C@H]1CCCCO[C@@H](CN(C)Cc2ccccc2)[C@@H](C)CN([C@@H](C)CO)C(=O)c2cc(NS(=O)(=O)c3ccc(Cl)cc3)ccc2O1	inactive	active	inactive
O=C(C[C@@H]1CC[C@@H]2[C@H](COC[C@@H](O)CN2S(=O)(=O)c2ccccc2)O1)N[C@@H]1CCN(Cc2ccccc2)C1	inactive	inactive	inactive
CC1(C)O[C@@H]2[C@@H](CO[C@@]3(COS(N)(=O)=O)OC(C)(C)O[C@@H]23)O1	inactive	inactive	inactive
C[C@@H]1CCCCO[C@H](CN(C)C(=O)Nc2ccc3c(c2)OCO3)[C@H](C)CN([C@@H](C)CO)C(=O)c2cc(NS(=O)(=O)c3ccccc3)ccc2O1	inactive	inactive	inactive
COc1cccc(S(=O)(=O)N2C[C@@H](O)COC[C@@H]3O[C@H](CC(=O)N4CCOCC4)CC[C@H]32)c1	inactive	inactive	inactive
COCC(=O)Nc1ccc2c(c1)OC[C@@H](C)N(C(=O)Cc1ccccn1)C[C@@H](C)[C@H](OC)CN(C)C2=O	inactive	inactive	inactive
O=C(C[C@@H]1C=C[C@@H](NC(=O)C2CCC2)[C@H](CO)O1)NCCCN1CCOCC1	inactive	inactive	inactive
C[C@H](CO)N1C[C@H](C)[C@@H](CN(C)Cc2ccc(Cl)c(Cl)c2)Oc2ccc(NC(=O)Cn3cnnn3)cc2C1=O	inactive	inactive	inactive
COc1cccc(C#Cc2ccc3c(c2)O[C@H](CN(C)C(=O)CN2CCOCC2)[C@@H](C)CN([C@H](C)CO)S3(=O)=O)c1	inactive	inactive	inactive
C=CCNC(=O)CSc1nc(=O)cc(N)[nH]1	inactive	inactive	inactive
COCC(=O)N1C[C@]2(C1)CN([C@H](CO)c1[nH]c3cc(ccc3c12)OC)S(=O)(=O)C	inactive	inactive	inactive
CCOC(=O)c1ccc(NC(=O)N[C@H]2O[C@@H](CO)[C@@H](O)[C@@H](O)[C@@H]2O)cc1	inactive	inactive	inactive
COc1ccc(NC(=O)Nc2ccc3c(c2)CC(=O)N([C@H](C)CO)C[C@H](C)[C@H](CN(C)Cc2ccc(C(F)(F)F)cc2)O3)cc1	inactive	active	inactive
COCC(=O)Nc1ccc2c(c1)C(=O)N(C)C[C@@H](OC)[C@@H](C)CN(Cc1ccccc1F)[C@@H](C)CO2	inactive	inactive	inactive
COc1ccc(CCNC(=O)[C@@]2(c3ccccc3)CC(=O)N(Cc3ccccc3)[C@@H]2c2ccc(COC(=O)NCCCCCC(=O)NO)cc2I)cc1	inactive	inactive	inactive
CCCN1C(=O)[C@@]2(c3ccc([N+](=O)[O-])cc3)CC(=O)N(CC34CC5CC(CC(C5)C3)C4)[C@@H]2c2ccc(CO)cc21	inactive	inactive	inactive
Cc1ccc(S(=O)(=O)Nc2ccc3c(c2)CC(=O)N([C@H](C)CO)C[C@@H](C)[C@@H](CN(C)S(=O)(=O)c2ccc(F)cc2)O3)cc1	inactive	inactive	inactive
CC(=N)NCc1cccc(CN)c1	inactive	inactive	inactive

SMILES	cytotoxicity call [1]	cytotoxicity call [2]	growth inhibition call [3]
O=C(CCCCCCC(=O)Nc1ccccc1O)N/N=C/[C@H](O)[C@@H](O)[C@@H](O)[C@H](O)C(=O)O	inactive	inactive	inactive
O=C(c1ccccc1F)N1CCNCC1	inactive	inactive	inactive
Cc1ccc(S(=O)(=O)[N-]Cl)cc1.[Na+]	inactive	inactive	inactive
O=C(c1ccc(S(=O)(=O)N2CCCCCC2)cc1)N(Cc1cccnc1)c1nc2c(F)cc(F)cc2s1	inactive	inactive	inactive
C[C@@H]1CCCCO[C@H](CN(C)C(=O)Nc2cccc3ccccc23)[C@@H](C)CN([C@@H](C)CO)C(=O)c2cc(NC(=O)Nc3ccc(C(F)(F)F)cc3)ccc2O1	inactive	inactive	inactive
OCCNC(=S)c1ccccc1	inactive	inactive	inactive
COc1ccc(NC(=O)Nc2ccc3c(c2)C(=O)N([C@H](C)CO)C[C@H](C)[C@H](CN(C)Cc2ccncc2)OCCCC[C@H](C)O3)cc1	inactive	inactive	inactive
Fc1ccc(-c2nc3ccc4ccccc4c3c3c2CCC3)cc1	inactive	inactive	inactive
C[C@@H]1CN([C@@H](C)CO)C(=O)c2cc(NS(=O)(=O)c3ccc(Cl)cc3)ccc2O[C@H]1CN(C)C(=O)Nc1cccc2ccccc12	inactive	inactive	inactive
C[C@@H]1CN([C@H](C)CO)C(=O)c2cc(NC(=O)CCCCCC(=O)Nc3ccccc3N)ccc2O[C@@H](C)CCCCO[C@@H]1CN(C)S(=O)(=O)c1ccc(Cl)cc1	inactive	inactive	inactive
COc1ccc(NC(=O)Nc2ccc3c(c2)C(=O)N([C@@H](C)CO)C[C@H](C)[C@@H](CN(C)Cc2ccccc2)OCCCC[C@@H](C)O3)cc1	inactive	inactive	inactive
CC(C)C(=O)[C@@H]1C(=O)O[C@@H](c2ccoc2)[C@]2(C)[C@H](O)[C@@H](O)[C@@]34O[C@]5(C)O[C@]3([C@H]12)[C@H](O)[C@@]1(O)[C@H](O)[C@]2(C)C[C@]1(O5)[C@@]4(C)[C@H]2CC(=O)O	inactive	active	inactive
COc1ccc(S(=O)(=O)N(C)C[C@H]2Oc3cc(C4=CCCC4)ccc3S(=O)(=O)N([C@H](C)CO)C[C@H]2C)cc1	inactive	inactive	inactive
C[C@@H]1CN([C@@H](C)CO)S(=O)(=O)c2ccc(C#CC3(O)CCCC3)cc2O[C@H]1CN(C)C(=O)Nc1ccccc1	inactive	inactive	inactive
Cc1ccc(S(=O)(=O)N(C)C[C@@H]2OCCCC[C@@H](C)Oc3ccc(NS(=O)(=O)c4ccc(Cl)cc4)cc3C(=O)N([C@@H](C)CO)C[C@H]2C)cc1	inactive	inactive	inactive
C[C@H](CO)N1C[C@H](C)[C@@H](CN(C)Cc2ccc(Oc3ccccc3)cc2)Oc2ccc(NC(=O)c3ccncc3)cc2C1=O	inactive	inactive	inactive
COc1ccc(CN(C)C[C@H]2OCCCC[C@H](C)Oc3ccc(NC(=O)Nc4cccc5ccccc45)cc3C(=O)N([C@@H](C)CO)C[C@@H]2C)cc1	inactive	inactive	inactive
COc1ccc(NC(=O)N(C)C[C@H]2Oc3c(NC(=O)Nc4ccc(C(F)(F)F)cc4)cccc3C(=O)N([C@H](C)CO)C[C@H]2C)cc1	inactive	inactive	inactive
